These results are taken from patent US20250084177A1, “ANTI-CD98 ANTIBODIES AND USES THEREOF” (HUAHUI HEALTH LTD., priority 2021, published 2025).

Series [1] relates to Raji tumors. In words: Raji xenograft tumor model. It counts as in vivo, mouse. Particulars: NOD SCID mice, 10 mg/kg. How it is done: (§1) For mouse tumor models, 6-8-week old mice were inoculated subcutaneously with various tumor cells (in 100 μL DPBS or medium). Except for MDA-MB-231-LN cells inoculated on the breast fat pad of female mice, all other cells were inoculated on the right flank. For xenograft tumor models, based on similar mean tumor volumes, mice were randomized into groups (n=2-6/group) and received intraperitoneal injection of various antibodies. For syngeneic tumor models, mice were randomized into groups (n=3-10/group) after tumor cells inoculation (1×10^5 cells in DPBS) and received intraperitoneal injection of various antibodies. Tumor volume was measured with an electronic caliper and calculated using the modified ellipsoid formula ½×(length×width2). When the tumor reached 2 cm in length or when weakness was observed, the mice were sacrificed.

Series [2] has as its system A-431 tumors. The series is described as follows: A-431 xenograft tumor model. The class given is in vivo, mouse. Particulars: CB-17 SCID mice, 15 mg/kg. How it is done:
as §1

For series [3], the target named is T1, hCD98 ECD-His6-Avi-Biotin (Homo sapiens, UniProt P08195).
T1 construct: ECD of human or murine CD98 were fused with His6-Avi tag and biotinylated by BirA ligase; made in house; host or cells: FreeStyle 293F cells
T1 sequence (P08195 105-529 limits assumed): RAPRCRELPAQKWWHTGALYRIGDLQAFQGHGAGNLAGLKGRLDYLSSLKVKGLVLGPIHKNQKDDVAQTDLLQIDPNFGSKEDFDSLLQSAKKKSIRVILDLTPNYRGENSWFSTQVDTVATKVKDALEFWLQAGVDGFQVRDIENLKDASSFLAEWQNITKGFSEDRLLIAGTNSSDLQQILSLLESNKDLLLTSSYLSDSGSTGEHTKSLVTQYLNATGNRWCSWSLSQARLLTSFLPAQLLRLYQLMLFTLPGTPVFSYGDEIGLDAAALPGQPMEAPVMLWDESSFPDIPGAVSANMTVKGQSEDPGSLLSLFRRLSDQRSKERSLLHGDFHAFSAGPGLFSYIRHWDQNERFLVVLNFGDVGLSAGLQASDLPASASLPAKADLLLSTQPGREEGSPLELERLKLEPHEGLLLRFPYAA
In words: ELISA binding to hCD98 ECD at pH 6.5 and pH 7.4. On the procedure:
For the ELISA-based analysis of antibody binding with antigen, biotinylated protein antigens were captured with streptavidin (Sigma-Aldrich) coated 96-well plates (Nunc, MaxiSorp™). Then, serially diluted antibodies were added, and detected by adding an HRP-labeled goat polyclonal anti-Human IgG Fc (Thermo Fisher Scientific).
A general note: In an ELISA, binding on a coated surface is turned into a signal by an enzyme label.

Series [4] has as its system MC38-hCD98 tumors. The series is described as follows: MC38-hCD98 syngeneic tumors in CD98 humanized mice. The class given is in vivo, mouse. Particulars: 20 mg/kg. On the procedure: as §1
The subject of series [5] is B16F10-hCD98 tumors. The series is described as follows: B16F10-hCD98 syngeneic tumors in CD98 humanized mice. The class given is in vivo, mouse. The note with it: 15 mg/kg. On the procedure: as §1
The subject of series [6] is A-431 cells. The series is described as follows: FACS binding to A-431 cells at pH 6.5 and pH 7.4. Details: species or system human. From the text: For examining CD98 expression in tumor cell lines: tumor cells were stained with anti-CD98 antibodies and subsequently stained with a goat polyclonal anti-Human IgG Fc FITC (Thermo Fisher Scientific). The CD98 expression on tumor cell lines were detected by FITC.
Background: In flow cytometry, cells or beads pass a laser one at a time.

The subject of series [7] is EL4-hCD98 tumors. In words: EL4-hCD98 syngeneic tumors in CD98 humanized mice. It counts as in vivo, mouse. Particulars: 15 mg/kg. How it is done: as §1
F or depletion of CD4+ or CD8+ T cells, tumor-bearing CD98humanized mice were injected with 15 mg/kg of anti-CD4 antibody (clone GK1.5, BioXCell) or 10 mg/kg of anti-CD8α antibody (clone 2.43, BioXCell) one day before S1-F4 treatment and once every 3-5 days. For depletion of NK cells, mice were injected with 2.5 mg/kg anti-Asialo-GM1 polyclonal antibody (Poly21460, Biolegend) one day before S1-F4 treatment and once every six days. […]

Series [8] in a line: Immunofluorescence staining of antibody enrichment in mouse kidneys. The note with it: CD98 humanized mice, 15 mg/kg, two days. The class given is in vivo. From the text:
For detecting enrichment of antibodies in mice kidneys, mice were sacrificed 2-3 days after injection with various antibodies. Then mice kidneys were harvested to prepare frozen sections. Kidney sections were stained with a goat polyclonal anti-Human IgG Fc FITC (Thermo Fisher Scientific). The CD98 expression on the surface of kidney cells was detected by FITC with a Vectra Polaris instrument (PerkinElmer).

Series [9] is described as follows: Pharmacokinetics in CD98 humanized mice. The class given is in vivo, mouse. Particulars: serum, single dose 15 mg/kg i.p. On the procedure:
6-8-week old C57BL/6 or CD98 humanized mice were used in this experiment. Blood was collected at different timepoints after a single intraperitoneal (i.p.) injection of analyte antibodies. Antibody concentrations in serum were measured with a human IgG ELISA quantitation kit (Bethyl Laboratories). Then antibody serum concentration was calculated and plotted in Graphpad Prism 6. The evaluation of the PK data was conducted with WinNonlin software.

B1: HN2-G9: anti-hCD98 antibody from non-immune phage display scFv library; VH SEQ ID NO:63, VL SEQ ID NO:68 (antibody, V domains shown)
VH: QVQLVQSGAEVKKPGSSVKVSCKASGYTFTSYYMHWVRQAPGQGLEWMGIINPSGGSTSYAQKFQGRVTMTRDTSTSTVYMELSSLRSEDTAVYFCARGYCSGGRCYSDFQHWGQGTLVTVSS
VL: DIVMTQSPDSLAVSLGERATINCKSSQSVLYSSNNKNYLAWYQQKPGQPPKLLIYWASTRESGVPDRFSGSGSGTDFTLTISSLQAEDVAVYYCQQYYNTPITFGQGTRLEIK
modifications: HN2-G9 VH amino acid seq; HN2-G9 VL amino acid seq
Consider B1, for which the antitumor activity result in series [1] is given as “comparable antitumor activity”.

B2: H15L54: pH-dependent anti-hCD98 antibody derived from S1-F4 VH Y97E sub-libraries; VH SEQ ID NO:23, VL SEQ ID NO:28 (antibody, V domains shown)
VH: QVQLVQSGAEVKKPGASVKVSCKASGYTFTSYQMHWVRQAPGQGLEWMGIINDKHGSTSYAQKFQGRVTMTRDTSTSTVYMELSSLRSEDTAVYYCARGYEDSNTHQHPIFFDIWGQGTMVTVSS
VL: DIVMTQSPDSLAVSLGERATINCKSSQSVLYRHNNKNYLAWYQQKPGQPPKLLIYWASTSESGVPDRFSGSGSGTDFTLTISSLQAEDVAVYYCQQYYNTPITFGQGTRLEIK
modifications: H15L54 VH amino acid seq; H15L54 VL amino acid seq
Take B2: the antitumor activity entry in series [2], in series [4], in series [5] and in series [7] was “significant antitumor activity” each time. In series [3] (EC50 ratio pH 7.4/6.5), the “binding pH-dependence relative to S1-F4 Y97E” value is recorded as “about 14 times”. Besides, in [3] (pH 6.5), the “binding activity at pH 6.5 relative to S1-F4 Y97E” value is “about 7 times”. The “binding to A-431 cells at pH 6.5 versus pH 7.4” value in [6] is given as “significantly stronger at pH 6.5 than at pH 7.4”. Moreover, in series [8], the “antibody enrichment in kidneys (FITC signal)” value is on record as “only a very weak FITC signal”. Moreover, the “half-life (t½)” value in series [9] is around 217.1 h.

B3: H15L35: pH-dependent anti-hCD98 antibody; VH SEQ ID NO:53, VL SEQ ID NO:58 (antibody, V domains shown)
VH: QVQLVQSGAEVKKPGASVKVSCKASGYTFTSYQMHWVRQAPGQGLEWMGIINDKHGSTSYAQKFQGRVTMTRDTSTSTVYMELSSLRSEDTAVYYCARGYEDSNTHQHPIFFDIWGQGTMVTVSS
VL: DIVMTQSPDSLAVSLGERATINCKSSQSVLYRHNNNNYLAWYQQKPGQPPKLLIYWASTSESGVPDRFSGSGSGTDFTLTISSLQAEDVAVYYCQQYYNTPITFGQGTRLEIK
modifications: H15L35 VH amino acid seq; H15L35 VL amino acid seq
Consider B3, for which the “binding to A-431 cells at pH 6.5 versus pH 7.4” value in series [6] is listed as “pH-dependent binding”.

B4: Ab8332: pH-dependent anti-hCD98 antibody; VH SEQ ID NO:33, VL SEQ ID NO:38 (antibody, V domains shown)
VH: QVQLVQSGAEVKKPGASVKVSCKASGYTFTSYQMHWVRQAPGQGLEWMGIINPSGGSTSYAQKFQGRVTMTRDTSTSTVYMELSSLRSEDTAVYYCARGYEDSNTHQHPIFFDIWGQGTMVTVSS
VL: DIVMTQSPDSLAVSLGERATINCKSSQSVLYSSNNKNYLAWYQQKPGQPPKLLIYWASTRESGVPDRFSGSGSGTDFTLTISSLQAEDVAVYYCQQYYNTPITFGQGTRLEIK
modifications: 8332 VH amino acid seq; 8332 VL amino acid seq
Consider B4, for which, in series [7], the antitumor activity entry is on record as “comparable inhibitory effect of tumor growth as S1-F4”.

B5: H15L1: pH-dependent anti-hCD98 antibody; VH SEQ ID NO:43, VL SEQ ID NO:48 (antibody, V domains shown)
VH: QVQLVQSGAEVKKPGASVKVSCKASGYTFTSYQMHWVRQAPGQGLEWMGIINDKHGSTSYAQKFQGRVTMTRDTSTSTVYMELSSLRSEDTAVYYCARGYEDSNTHQHPIFFDIWGQGTMVTVSS
VL: DIVMTQSPDSLAVSLGERATINCKSSQSVLYRHNNKNYLAWYQQKPGQPPKLLIYWASTRESGVPDRFSGSGSGTDFTLTISSLQAEDVAVYYCQQYYNTPITFGQGTRLEIK
modifications: H15L1 VH amino acid seq; H15L1 VL amino acid seq
As to B5, in series [6], the “binding to A-431 cells at pH 6.5 versus pH 7.4” value is recorded as “pH-dependent binding”.
